Results on 44 sequences are retold here after the supplement of paper PMC11417369.

± gives the standard deviation of the averaged measurements. The list shows a part of the results.

The assay has as its system PfAP2-G AP2 domain (GST-tagged). Nature of the assay: gcPBM binding intensity (ln(normalized median fluorescence intensity)); higher = stronger DNA binding. In outline: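 Binding intensity is defined as the maximum Masliner-normalised natural-log median intensity across replicate spots for either probe orientation. It was measured on an Agilent 4 × 180k array of primer-extended double-stranded 36-bp intergenic genomic probes and negative controls, to which GST-tagged P. falciparum DNA-binding domains made in E. coli were applied for 1 h in 1× PBS with 1% milk, 0.2 mg/ml BSA, 0.5% salmon testes DNA and 0.03% Triton X-100. Detection was by Alexa488 anti-GST antibody and scanning at 488 nm.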
For the sequence “TATAAAAAAATAATAAATAAATAAAAAGATTTCTTT [TGCATGCA_negctrl_site122]”, the “gcPBM binding intensity (ln)” value turned out to be 9.29 ± 0.34.
For the sequence “AATAATATATGGTGTACACAAAAGTATAAATAATTT [CACACA_site5338]”, the “gcPBM binding intensity (ln)” value was found to be 11.9 ± 1.
As to “TTATTATTAAGACACACACACAAAAAAAAAAAAAAA [CACACA_site6805]”, the “gcPBM binding intensity (ln)” value was found to be 9.91 ± 0.54.
Then “TTTCCAATTAGTTTTGCATGTTGAAAAAATGTTGGA [TGCATGCA_site1035]”, with 9.81 ± 0.099.
Then “TAAAAAGGAAAACACACACACACATATATATATATA [CACACA_site3588]”, with 10.1 ± 0.45.
For “ATTTTTAAGCATATCAAAAAAAAAAAAAAAATTAAT [CACACA_negctrl_site980]” the value was 9.72 ± 0.22; for “TTACTAAAAATTATTAATAAATAATAATTATAAATT [GTGCAC_negctrl_site310]”, 9.52 ± 0.028.
As for “TATCATAAACTTCCTTACTATACTTTTCTTATTCAT [CACACA_negctrl_site1341]”, the “gcPBM binding intensity (ln)” value is 10.1 ± 0.12.
For “CTTTGTAGTATATTAACACACAACTATTTATAATAT [CACACA_site3934]” the value was 9.99 ± 0.085.
Turning to “TATTTTAACTTCTCATGTACATATATTATGTCTATA [XGTACX_site249]”, the “gcPBM binding intensity (ln)” value turned out to be 11.1 ± 0.65.
For “TTTCATGTTTTAAAGTGTACATAAATATATTATATG [XGTACX_site3367]” the value was 11.5 ± 0.89; for “ACCATACATACATACACACACACACCCATATATATA [CACACA_site2917]”, 10.3 ± 0.19; for “TTTTTAATAAAATGATTGATAATTATTAAATTAAAA [CACACA_negctrl_site488]”, 9.45 ± 0.057.
For “TTGTGTTTGCGTAAATGTACGGAAAGACTTGAAGAC [XGTACX_site7235]” the value was 11 ± 0.64; for “TTGTTAGAGTATATTGAAAGGATAACCTTTTTTTAT [XGTACX_negctrl_site122]”, 9.65 ± 0.11; for “TAACATATCTTTAATACACACTTAAAAAAGTACTTA [CACACA_site4532]”, 11.3 ± 0.89.
For “TTGATGTATACAATGTAGATTATTTAATATTTCAAT [GTGCAC_negctrl_site203]” the value was 9.78; for “TTATATAACCCTCATGCATGCTAAGAAAAAAAAAAC [TGCATGCA_site936]”, 10.2 ± 0.33; for “ATTTATATTATAATATGTACACAAAAAAAATTAGGA [XGTACX_site565]”, 11.6 ± 0.95.
Regarding “GGAAACACAATATATACACACATATATATATATATA [CACACA_site235]”, the “gcPBM binding intensity (ln)” value stood at 9.98 ± 0.23.
Take “ACACTTAAATATTGTTGTACAAAATGATAAAATGTA [XGTACX_site4588]”: the “gcPBM binding intensity (ln)” value is 11.2 ± 0.7.
Then “TTTTTTTTTTAATTCGCACACTGTCTTCATGCAATT [CACACA_site4882]”, with 10.04 ± 0.049; and “TTAAAAAATTTTTAAGCACACACATAGATAATATAT [CACACA_site8440]”, with 10.4 ± 0.23.
With “GCACATCTATATGAAACACACATGGAAACATCTCTT [CACACA_site7793]”, the “gcPBM binding intensity (ln)” value amounted to 10.01 ± 0.057.
Then “ACATCTCTTATATATTCACACACATATATATAATTA [CACACA_site8424]”, with 10.07 ± 0.028; and “AGTATATATTATATATATATATATATATTATATATG [TGCATGCA_negctrl_site99]”, with 9.6 ± 0.11.
Then “ATAGAATATTATATTACACACAGAATAATAAAAAAT [CACACA_site86]”, with 9.885 ± 0.007; and “AGCATTAAAAATGGAATGGAATTAAGCTATATATTA [CACACA_negctrl_site1571]”, with 9.58 ± 0.26; and “GAAACTTCAAGAAATGCACACAATAAAATAAATAAA [CACACA_site1549]”, with 10.1 ± 0.19.
Then “CATTTCGAAAAAAAATGTACTTATTATATTTATATA [XGTACX_site6752]”, with 11.2 ± 0.89; and “TGTATATATTATAAAAGTACATAATATTCTTAGATA [XGTACX_site5623]”, with 11.3 ± 0.83; and “TTATCTTACATAAATTATAACAATAATATGTGTATA [XGTACX_negctrl_site379]”, with 9.96 ± 0.042.
“AACCACAGACATATAACACACATATACAATATATAT [CACACA_site5142]”: the “gcPBM binding intensity (ln)” value is 10.2 ± 0.28.
For CTTTTTTTGACCTTAGTGCAAATAACTATATATTAT the value was 10.4 ± 0.39; for “TAAAAAAAAAAATGAACATGCAACAATTGTGATGAA [TGCATGCA_site332]”, 9.74 ± 0.32.
For “ACTGTAACAATCATGGGTACAAATAAAATAATATCT [XGTACX_site99]” the value was 11.2 ± 0.73; for “ATGAAAATTATAAAGTGTACATATAGAAACATTTAC [XGTACX_site8047]”, 11.4 ± 0.99; for “TTTCGATTAAAAATTGTACAATATAAGGAGCACACA [GTGCAC_negctrl_site476]”, 11.2 ± 0.64.
For the sequence “AAAAGAATATATAATTGTACTTAAAATATAATTAAG [XGTACX_site4484]”, the “gcPBM binding intensity (ln)” value amounted to 11.1 ± 0.74.
For “TTTTGTCTTATATGTTGTACAACGTAAACAAAAAAA [XGTACX_site4412]” the value was 11.5 ± 0.82; for “ATTTAAGTAGTACATACACACACATATACAAAAAGA [CACACA_site9317]”, 11.7 ± 1.3.
On to “AAAAAAATTAAACATGAAGAATAAGGAACAAAAAAA [CACACA_negctrl_site1607]”, for which the “gcPBM binding intensity (ln)” value is 10.1 ± 0.014.
For “TTTAATCATATGTTATATAATAAGCCCCCCCCCCAA [CACACA_negctrl_site486]” the value was 11.6 ± 0.86; for “ATGGGACATATATATACACACATATATATATATATA [CACACA_site1202]”, 10.2 ± 0.3.
